From publication PMC4336329 (PLoS ONE, 2015) come the findings set out here.

Hit rate of the full screen: of about 310,000 compounds, about 2,200 (0.71%) showed an effect of 50% or more. The effect is printed as a negative number. This is one part of the list.

Chain of human ether-à-go-go-related gene (hERG) potassium channel (Q12809 whole entry, looked up): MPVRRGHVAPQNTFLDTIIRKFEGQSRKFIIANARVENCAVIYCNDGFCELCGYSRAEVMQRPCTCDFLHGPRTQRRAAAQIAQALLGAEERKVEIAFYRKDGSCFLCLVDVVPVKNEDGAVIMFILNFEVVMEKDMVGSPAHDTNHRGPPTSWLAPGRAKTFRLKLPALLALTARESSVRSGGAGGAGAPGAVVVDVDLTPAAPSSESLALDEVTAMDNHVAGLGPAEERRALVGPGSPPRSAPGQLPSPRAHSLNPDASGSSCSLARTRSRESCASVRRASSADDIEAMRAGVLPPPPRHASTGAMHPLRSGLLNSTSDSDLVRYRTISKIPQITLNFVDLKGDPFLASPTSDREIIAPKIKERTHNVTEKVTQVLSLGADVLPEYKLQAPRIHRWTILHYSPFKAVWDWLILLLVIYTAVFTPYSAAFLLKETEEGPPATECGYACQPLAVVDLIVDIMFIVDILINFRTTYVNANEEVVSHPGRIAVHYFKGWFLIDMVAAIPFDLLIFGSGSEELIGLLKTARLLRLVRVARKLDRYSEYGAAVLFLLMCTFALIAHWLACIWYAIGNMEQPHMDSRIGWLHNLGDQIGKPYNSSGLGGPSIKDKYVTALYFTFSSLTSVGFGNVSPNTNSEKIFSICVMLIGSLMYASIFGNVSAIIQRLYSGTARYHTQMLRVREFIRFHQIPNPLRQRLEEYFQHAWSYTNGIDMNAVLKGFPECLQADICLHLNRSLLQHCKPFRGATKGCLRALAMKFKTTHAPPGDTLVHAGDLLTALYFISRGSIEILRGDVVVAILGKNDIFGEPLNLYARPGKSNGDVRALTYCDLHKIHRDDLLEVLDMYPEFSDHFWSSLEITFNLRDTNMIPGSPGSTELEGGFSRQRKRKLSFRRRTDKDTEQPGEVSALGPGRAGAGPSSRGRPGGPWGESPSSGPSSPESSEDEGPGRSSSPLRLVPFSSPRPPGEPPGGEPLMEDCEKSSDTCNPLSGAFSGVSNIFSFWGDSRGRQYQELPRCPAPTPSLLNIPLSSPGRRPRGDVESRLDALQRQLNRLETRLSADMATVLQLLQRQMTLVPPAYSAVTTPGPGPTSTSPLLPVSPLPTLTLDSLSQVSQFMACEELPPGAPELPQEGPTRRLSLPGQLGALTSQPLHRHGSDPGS

This assay has as its target human ether-à-go-go-related gene (hERG) potassium channel (human, UniProt Q12809). The assay is described as follows: primary screen, population patch clamp on CHO cells stably expressing hERG.
Consider `O=C(NCc1ccc(F)cc1)c1cnc(Cl)c(Cl)c1`, for which the “hERG current change (%, negative = inhibition) at 1uM” value is -6.15%.

As to `COc1ccccc1N1CCN(C(=O)c2ccc(CSc3ccccc3)cc2)CC1`, the “hERG current change (%, negative = inhibition) at 1uM” value is 11.4%.

In the case of `Cc1ccc(NC(=S)NCC2CCN(C(C)c3ccccc3)C2)cc1C` (stereo not drawn), the “hERG current change (%, negative = inhibition) at 1uM” value is 1.43%.

Turning to `COc1ccc(OC)c(C(c2c(C)[nH][nH]c2=O)c2c(C)[nH][nH]c2=O)c1`, the “hERG current change (%, negative = inhibition) at 1uM” value is given as 22.8%.

Regarding `CC(C)Cn1c(-c2ccco2)csc1=Nc1cccnc1`, the “hERG current change (%, negative = inhibition) at 1uM” value is listed as 12.3%.

On to `O=C(NCc1ccco1)c1cc([N+](=O)[O-])ccc1N1CCCCC1`, for which the “hERG current change (%, negative = inhibition) at 1uM” value is -17%.

`CC(C)C(=O)Nc1ccc(C(=O)N/N=C/c2cc(Br)cc(Br)c2O)cc1`: the “hERG current change (%, negative = inhibition) at 1uM” value was found to be 10.4%.

As for `CCOc1cc(C=C2C(=O)NC(=O)NC2=O)ccc1OCC(=O)N1CCOCC1`, the “hERG current change (%, negative = inhibition) at 1uM” value is 6.58%.

Consider `Nc1cc(S(=O)(=O)Nc2cc(Cl)ccc2Cl)ccc1N1CCCC1`, for which the “hERG current change (%, negative = inhibition) at 1uM” value is listed as 2.64%.

Take `O=C(COC(=O)/C=C/c1ccccc1[N+](=O)[O-])NCC1CCCO1` (stereo not drawn): the “hERG current change (%, negative = inhibition) at 1uM” value amounted to 12.6%.

`COc1ccc(/C=C2\S/C(=N/S(=O)(=O)c3cccs3)NC2=O)cc1`: the “hERG current change (%, negative = inhibition) at 1uM” value amounted to 15.9%.

On to `CC1(C)CC1C(=O)Nc1ccc([N+](=O)[O-])cc1Br` (stereo not drawn), for which the “hERG current change (%, negative = inhibition) at 1uM” value is given as -4.48%.

`Cc1ccc(C2C(C(=O)c3sc(C)nc3C)=C(O)C(=O)N2CCN2CCOCC2)o1` (stereo not drawn): the “hERG current change (%, negative = inhibition) at 1uM” value was 5.52%.

Take `Cc1ccc(NC(=O)N/C=C/c2ccc(Cl)cc2)cc1`: the “hERG current change (%, negative = inhibition) at 1uM” value is 21.7%.

Consider `COC(=O)C1=C(C)NC(=O)C1(NC(=O)c1cccnc1)C(F)(F)F` (stereo not drawn), for which the “hERG current change (%, negative = inhibition) at 1uM” value is -6.62%.

On to `CN1CCN(NC(=O)c2cccc(Br)c2)CC1`, for which the “hERG current change (%, negative = inhibition) at 1uM” value is on record as 10.3%.

Take `COc1cc(-c2nnc(-c3cccs3)o2)cc(OC)c1OC`: the “hERG current change (%, negative = inhibition) at 1uM” value was found to be 22.9%.

With `COc1ccc(NC2=C(NC(C)=O)C(=O)c3ccccc3C2=O)cc1`, the “hERG current change (%, negative = inhibition) at 1uM” value worked out at 20%.

For the compound `NC(=O)[C@@H]1CCCNc2c(I)cc([N+](=O)[O-])cc2C(=O)N[C@@H](CCC(=O)O)C(=O)N[C@@H](CO)C(=O)N1`, the “hERG current change (%, negative = inhibition) at 1uM” value came to 10.5%.

Turning to `O=C(O)c1cnn(-c2nc(-c3ccc(Br)cc3)cs2)c1C(F)(F)F`, the “hERG current change (%, negative = inhibition) at 1uM” value worked out at 16.7%.

Consider `O=C(O)c1cccc(N=C2NC(=O)C(CO)(CO)S2)c1`, for which the “hERG current change (%, negative = inhibition) at 1uM” value came to 13.1%.

On to `O=C(NCC1CCCO1)C(c1ccc(N2CCOCC2)cc1)N(C(=O)Cn1nnc2ccccc21)c1ccccc1F` (stereo not drawn), for which the “hERG current change (%, negative = inhibition) at 1uM” value stood at 2.73%.

As for `COc1ccc(N2CCN(S(=O)(=O)c3cnc[nH]3)CC2)cc1`, the “hERG current change (%, negative = inhibition) at 1uM” value stood at 6.63%.

For the compound `COCCN1C(=O)c2ccccc2C(C(=O)Nc2ccc3c(c2)OCCO3)C1c1ccc(F)cc1` (stereo not drawn), the “hERG current change (%, negative = inhibition) at 1uM” value was found to be 15.8%.
